Some of the results follow. The data describe in vitro nicking of single-stranded DNA by Rep domains (1 h at 37 °C, 3 µM enzyme); the outer parts of the 90-letter strands are left off. A value is the log2 ratio of uncut reads to the pool without enzyme; the lower, the more was cut; hits are not called. Counts are relative to all reads; where an enzyme cuts many sequences, the uncut ones exceed 0.
What was measured:
Assay in all cases: uncleaved DNA left, log2 of reads against the no-enzyme library (log2 ratio); higher = less cleavage (more negative = more Rep cleavage of the k-mer); sequences stand for … in CTCGTCCG…ACCGGAGA
[1] = system: T1, Rep nickase domain of Muscovy duck circovirus
T1 sequence (residues 1-111, tag not shown): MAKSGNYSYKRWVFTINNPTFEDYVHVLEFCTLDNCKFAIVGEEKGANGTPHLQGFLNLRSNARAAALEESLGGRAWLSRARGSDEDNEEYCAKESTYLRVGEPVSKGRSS
Protocol: (§1)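 A pool of 90-nt single-stranded DNAs with seven random bases just before the constant AC of the nick site (name = the seven bases) was cut by 3 µM recombinant His6-SUMO-tagged Rep nickase domain (300 nM DNA, 50 mM HEPES pH 8.0, 50 mM NaCl, 1 mM MnCl2, 1 h, 37 °C, three replicates). Uncut DNA was amplified and sequenced.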

[2] = system: T2, Rep nickase domain of banana bunchy top virus
T2 sequence (residues 1-94, tag not shown): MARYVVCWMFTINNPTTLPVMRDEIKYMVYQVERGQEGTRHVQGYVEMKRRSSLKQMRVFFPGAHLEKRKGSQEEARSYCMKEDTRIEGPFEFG
Protocol: as §1

[3] = system: T3, Rep nickase domain of cabbage leaf curl virus
T3 sequence (residues 1-116, tag not shown): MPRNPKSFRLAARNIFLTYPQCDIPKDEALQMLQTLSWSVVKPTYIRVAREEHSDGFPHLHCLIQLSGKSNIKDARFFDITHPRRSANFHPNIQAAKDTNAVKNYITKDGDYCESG
Protocol: as §1

[4] = system: T4, Rep nickase domain of chickpea chlorotic dwarf virus
T4 sequence (residues 1-124, tag not shown): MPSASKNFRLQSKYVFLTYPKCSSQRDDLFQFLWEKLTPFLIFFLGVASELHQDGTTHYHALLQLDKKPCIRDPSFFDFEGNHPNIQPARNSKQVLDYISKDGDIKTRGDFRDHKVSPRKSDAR
Protocol: as §1

[5] = system: T5, Rep nickase domain of faba bean necrotic yellows virus
T5 sequence (residues 1-98, tag not shown): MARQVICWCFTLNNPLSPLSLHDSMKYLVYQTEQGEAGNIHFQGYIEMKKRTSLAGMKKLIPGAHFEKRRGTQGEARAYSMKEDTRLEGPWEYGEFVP
Protocol: as §1

[6] = system: T6, Rep nickase domain of maize striate mosaic virus
T6 sequence (residues 1-117, tag not shown): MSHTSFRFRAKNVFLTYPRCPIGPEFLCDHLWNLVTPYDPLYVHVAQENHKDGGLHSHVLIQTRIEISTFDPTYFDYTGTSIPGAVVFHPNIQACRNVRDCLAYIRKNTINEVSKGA
Protocol: as §1

[7] = system: T7, Rep nickase domain of porcine circovirus 2
T7 sequence (residues 2-116, tag not shown): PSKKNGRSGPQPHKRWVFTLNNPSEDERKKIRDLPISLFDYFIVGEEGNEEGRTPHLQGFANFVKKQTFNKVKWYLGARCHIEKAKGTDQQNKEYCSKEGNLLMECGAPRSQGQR
Protocol: as §1

[8] = system: T8, Rep nickase domain of tomato yellow leaf curl virus
T8 sequence (residues 1-136, tag not shown): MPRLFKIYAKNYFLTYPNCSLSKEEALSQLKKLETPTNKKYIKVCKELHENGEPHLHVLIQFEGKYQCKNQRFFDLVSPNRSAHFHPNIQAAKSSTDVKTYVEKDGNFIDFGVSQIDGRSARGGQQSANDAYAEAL
Protocol: as §1

[9] = system: T9, Rep nickase domain of wheat dwarf virus
T9 sequence (residues 1-137, tag not shown): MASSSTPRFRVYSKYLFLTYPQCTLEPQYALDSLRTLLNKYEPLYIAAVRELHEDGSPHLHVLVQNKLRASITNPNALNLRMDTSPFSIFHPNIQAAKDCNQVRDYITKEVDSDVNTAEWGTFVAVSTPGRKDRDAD
Protocol: as §1

Sequence	uncleaved DNA left (log2) [1]	uncleaved DNA left (log2) [2]	uncleaved DNA left (log2) [3]	uncleaved DNA left (log2) [4]	uncleaved DNA left (log2) [5]	uncleaved DNA left (log2) [6]	uncleaved DNA left (log2) [7]	uncleaved DNA left (log2) [8]	uncleaved DNA left (log2) [9]
CCTAGTA	0.0705	0.00528	-0.15	-1.14	-0.0348	-0.948	-0.0553	-0.0813	-0.0649
ACGCTGC	0.0532	0.0182	-0.425	-0.205	0.142	-0.618	0.184	-0.00769	-0.0881
ATTCCGG	-0.0627	0.111	0.485	1.39	0.0466	1.54	-0.00765	-0.0254	0.105
TAGACGA	0.0296	-0.0236	0.125	0.33	-0.119	0.0386	-0.0313	-0.0576	-0.0455
AGAATTT	-0.0547	-0.0889	0.0854	-2.19	-0.0227	-0.363	-1.72	-0.112	-0.162
CGCTGTC	-0.131	-0.0677	0.299	1.29	-0.123	1.31	-0.0823	-0.165	-0.0756
AGTAAGT	0.08	-0.0113	0.133	-0.289	-0.0272	-0.726	-3.04	0.0381	0.0746
GGCCTAG	0.157	0.191	0.234	0.546	0.142	0.525	0.174	0.121	0.198
TGTCGGG	0.122	-0.0521	0.00153	0.067	-0.113	-0.373	-0.055	-0.111	-0.092
GCCGGTT	0.205	0.159	0.375	0.31	0.158	0.64	0.243	0.249	0.0517
ATTGCGG	-0.0541	-0.0189	-0.778	-0.633	0.0263	-0.899	0.107	0.025	-0.0887
AACATTC	0.0022	-0.0384	-0.241	-0.235	0.0341	-1.02	0.146	0.0671	0.00763
AAATCAC	0.156	0.106	-1.65	-1.55	0.0626	-0.723	-0.00863	0.12	-0.224
CGGTAAG	0.0365	0.121	-0.642	-0.207	-0.0305	-0.727	0.171	0.139	0.0668
GTCCACG	-0.0228	0.0385	0.0807	0.359	-0.112	0.233	0.086	-0.0284	-0.0665
ACTCGGA	-0.0135	-0.054	-0.148	0.0681	-0.0449	-0.435	-0.0836	-0.095	-0.0898
TGGCCGT	-0.0406	-0.0242	-0.171	-0.179	-0.175	-0.311	-0.00645	-0.0105	0.157
GGAGGAG	0.0655	0.0271	0.323	0.948	-0.0267	0.658	0.197	0.0596	0.0532
AACATGT	-0.0133	0.0231	-0.292	-0.933	0.0927	-0.843	-0.289	0.0402	0.0739
AATGCGG	0.00528	0.0955	-0.182	-0.284	0.0893	-0.498	0.209	0.145	0.108
GTACCCC	0.0308	0.138	0.406	0.725	0.0579	1.42	-0.201	0.109	0.03
CACACAA	0.0554	-0.0392	0.0358	-0.715	0.00939	-0.752	0.183	-0.0503	0.0728
ACGCATC	0.107	0.0372	-0.182	-0.0854	0.0638	-0.555	0.123	-0.151	-0.0326
GGACTTA	0.0459	0.0211	0.69	1.71	-0.112	2.06	0.0569	-0.0165	0.198
TGAATTA	-0.04	-0.0114	0.079	-0.816	-0.00931	-0.1	-0.193	0.0252	0.0796
CTTCCCC	-0.3	-0.223	0.0605	-0.431	-0.233	-0.387	-1.97	-0.0277	-0.0796
TGTTATA	0.0616	0.041	0.29	-0.21	0.093	0.951	-0.0329	0.0497	0.118
CCTATAG	0.029	0.0283	-0.767	-0.453	-0.0245	-1.1	0.118	-0.00574	-0.0647

From the supplement of paper PMC7826260
